{"source": "paper PMC6919601", "about": "“Identification of Plasmodium dipeptidyl aminopeptidase allosteric inhibitors by high throughput screening” (PLoS ONE, 2019)", "note": "Hit rate of the full screen: of about 110,000 compounds, about 230 (0.21%) showed an effect of 50% or more. This is one part of the list.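 Note: 30 min substrate incubation versus DMSO and 10 µM JCP410 controls.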"}
{"target": "DPAP1 (Plasmodium falciparum, UniProt Q8IIJ9)", "sequence (Q8IIJ9 whole entry, looked up)": "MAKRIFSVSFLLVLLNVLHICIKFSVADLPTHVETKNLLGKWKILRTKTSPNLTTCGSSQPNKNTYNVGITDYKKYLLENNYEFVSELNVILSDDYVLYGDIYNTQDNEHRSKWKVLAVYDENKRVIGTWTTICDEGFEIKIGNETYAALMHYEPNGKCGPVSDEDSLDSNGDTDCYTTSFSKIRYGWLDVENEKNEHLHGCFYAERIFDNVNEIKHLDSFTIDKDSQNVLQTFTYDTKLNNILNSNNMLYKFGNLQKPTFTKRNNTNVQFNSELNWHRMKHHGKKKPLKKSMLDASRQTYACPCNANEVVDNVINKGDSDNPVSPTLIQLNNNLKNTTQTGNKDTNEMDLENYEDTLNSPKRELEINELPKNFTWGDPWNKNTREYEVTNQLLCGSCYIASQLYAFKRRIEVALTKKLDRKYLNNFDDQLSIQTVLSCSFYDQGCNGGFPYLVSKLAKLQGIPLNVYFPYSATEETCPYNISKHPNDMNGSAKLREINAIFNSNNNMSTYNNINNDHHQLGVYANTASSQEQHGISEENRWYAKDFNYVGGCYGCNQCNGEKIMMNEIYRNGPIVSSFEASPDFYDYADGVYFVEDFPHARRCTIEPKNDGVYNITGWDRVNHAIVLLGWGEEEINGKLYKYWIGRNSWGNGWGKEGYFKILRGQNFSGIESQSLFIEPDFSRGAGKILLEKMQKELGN", "assay": "primary screen, percent inhibition; read by cleavage of a fluorogenic dipeptide substrate; higher = more effect of the substance", "design": "species or system P. falciparum D10 trophozoite lysates; single well", "units": {"% Inhibition @ 10 uM": "%"}}
{"compound": "CC(=O)c1cc(C#N)c(SCC(=O)c2cc3ccccc3oc2=O)nc1C", "% Inhibition @ 10 uM": -1.6}
{"compound": "COC(=O)C1=CN(Cc2ccc(OC)c(OC)c2)C=C(C(=O)OC)C1c1cccs1", "% Inhibition @ 10 uM": -11.3}
{"compound": "CCOc1ccc(OCCSc2nc3ccccc3n2CC(O)CO)cc1", "note": "(stereo not shown)", "% Inhibition @ 10 uM": -1.84}
{"compound": "CCc1ccccc1NC(=O)CN(c1cc(Cl)cc(Cl)c1)S(C)(=O)=O", "% Inhibition @ 10 uM": 0.161}
{"compound": "N#CC1=C(N)OC2=C(C(=O)CCC2)C1c1ccc(Cl)cc1", "note": "(stereo not shown)", "% Inhibition @ 10 uM": 4.73}
{"compound": "CCCCCCOc1ccc(COC2C(C(O)CO)OC3OC(C)(C)OC32)cc1", "note": "(stereo not shown)", "% Inhibition @ 10 uM": -4.7}
{"compound": "N#CC1=C2SCN(Cc3ccco3)CN2C(=O)CC1c1ccc(Cl)cc1", "note": "(stereo not shown)", "% Inhibition @ 10 uM": 42.2}
{"compound": "Cc1cc(C)c2c(-n3cccc3)nn(CC(=O)NCC3CCCO3)c2n1", "note": "(stereo not shown)", "% Inhibition @ 10 uM": -2.99}
{"compound": "C=CCN1C(=O)N/C(=C/c2cc(Br)c(OCc3ccccc3C#N)c(OC)c2)C1=O", "% Inhibition @ 10 uM": 1.4}
{"compound": "O=C(NCc1ccccc1)c1nccnc1CO", "% Inhibition @ 10 uM": -1.08}
{"compound": "CCOC(=O)N1CCC(NC(=O)c2ccc3c(Cl)c4c(nc3c2)CCCC4)CC1", "% Inhibition @ 10 uM": -3.68}
{"compound": "CCOC(=O)N1CCC(NC(=O)c2cc3sccc3n2CC)CC1", "% Inhibition @ 10 uM": -8.58}
{"compound": "CCOC(=O)N1CCN(C(=O)C2=C(C)C(=O)OC23CCCCC3)CC1", "% Inhibition @ 10 uM": 4.77}
{"compound": "CCSc1nc2c(c(=O)[nH]c(=O)n2C)n1Cc1ccccc1", "% Inhibition @ 10 uM": -0.864}
{"compound": "Cc1cccc2c1-c1sc(C(=O)N3CCC(C(N)=O)CC3)cc1CO2", "% Inhibition @ 10 uM": -1.37}
{"compound": "N#CC1=C2SCN(CCc3ccccc3)CN2C(=O)CC1c1ccc(F)cc1", "note": "(stereo not shown)", "% Inhibition @ 10 uM": 51.6}
{"compound": "COc1ccc(C(=O)N2CCCC2)cc1OC", "% Inhibition @ 10 uM": -5.57}
{"compound": "CCOc1sc2nc(C)n(CC(=O)NCc3ccccc3Cl)c(=O)c2c1C", "% Inhibition @ 10 uM": 1.91}
{"compound": "CCOc1ccccc1NC(=O)C(C)Oc1ccccc1", "note": "(stereo not shown)", "% Inhibition @ 10 uM": -2.29}
{"compound": "CCOc1ccccc1NC(=O)c1ccccc1OC", "% Inhibition @ 10 uM": 3.53}
{"compound": "O=C(O)CNC(=S)N1CC2CC(C1)c1cccc(=O)n1C2", "note": "(stereo not shown)", "% Inhibition @ 10 uM": 1.16}
{"compound": "Cc1ccccc1Cn1ccc(NC(=O)COCc2cc(-c3cccs3)on2)n1", "% Inhibition @ 10 uM": -0.501}
{"compound": "OCCN(Cc1ccccc1)Cc1ccccc1", "% Inhibition @ 10 uM": 1.62}
{"compound": "Cc1ccc2c(c1)c1c3n2CCN(C=O)C3CCC1", "note": "(stereo not shown)", "% Inhibition @ 10 uM": -0.128}
{"compound": "Cc1cc(C)c(S(=O)(=O)NCCCn2ccnc2)c(C)c1", "% Inhibition @ 10 uM": 0.769}
{"compound": "Cc1cccc(N2C(=O)NC(=O)/C(=C\\c3ccc(N(C)C)cc3)C2=O)c1", "% Inhibition @ 10 uM": 1.43}
{"compound": "O=C(Nc1cc(-c2ccccc2)[nH]n1)c1ccc(-c2ccccc2)cc1", "% Inhibition @ 10 uM": -1.25}
{"compound": "CCn1cc(/C=C(\\NC(=O)c2ccccc2)C(=O)NCc2ccccc2)c2ccccc21", "% Inhibition @ 10 uM": -1.74}
{"compound": "COc1ccc(-c2noc(CN(C(=O)N3CCOCC3)C(C)C)n2)cc1", "% Inhibition @ 10 uM": -1.22}
{"compound": "O=C1CC(c2ccccc2)CC(=O)C1=CNCCc1ccccc1", "note": "(stereo not shown)", "% Inhibition @ 10 uM": 3.04}
{"compound": "O=C(COCc1cc(-c2cccs2)on1)NCc1ccccc1", "% Inhibition @ 10 uM": -4.67}
{"compound": "Cc1cc(C)n2nc(CNS(=O)(=O)c3ccc(Br)s3)nc2n1", "% Inhibition @ 10 uM": -9.71}
{"compound": "O=C(NCc1ccco1)C1CCCN(S(=O)(=O)c2ccc(-c3ccc(O)nn3)s2)C1", "note": "(stereo not shown)", "% Inhibition @ 10 uM": -0.887}
{"compound": "CCC(C)NC(=O)Cn1ncn2cccc2c1=O", "note": "(stereo not shown)", "% Inhibition @ 10 uM": -7.17}
{"compound": "O=C(C1CCCN(c2nn3cc(-c4ccc(F)cc4)nc3s2)C1)N1CCOCC1", "note": "(stereo not shown)", "% Inhibition @ 10 uM": 3.7}
{"compound": "CC(=O)c1ccccc1OCC(O)Cn1ccnc1", "note": "(stereo not shown)", "% Inhibition @ 10 uM": -1.11}
{"compound": "COC(=O)c1ccc(NC(=O)CCC(=O)O)cc1", "% Inhibition @ 10 uM": 0.774}
{"compound": "C/C(Cl)=C\\CSc1nc2c(c(=O)[nH]c(=O)n2C)n1Cc1ccccc1", "% Inhibition @ 10 uM": -2.78}
{"compound": "COc1ccccc1NC(=O)c1cc(C)cc(C)c1", "% Inhibition @ 10 uM": -2.32}
{"compound": "Cc1[nH]c2ccccc2c1C(=O)/C=C/c1ccco1", "% Inhibition @ 10 uM": 3}
{"compound": "Cc1cc(C(=O)N2CC(C)CC(C)C2)n[nH]1", "note": "(stereo not shown)", "% Inhibition @ 10 uM": -1.3}
{"compound": "COc1ccc(-c2noc(CN(C(=O)c3ccc(C)cc3Cl)C(C)C)n2)cc1", "% Inhibition @ 10 uM": -4.62}
{"compound": "COc1cccc(C(=O)Nc2nnc(-c3ccccc3)s2)c1", "% Inhibition @ 10 uM": 1.12}
{"compound": "Cc1nc2ccn(Cc3ccco3)c(=O)c2cc1C(=O)NC1CCN(Cc2ccccc2)CC1", "% Inhibition @ 10 uM": 0.586}
{"compound": "Fc1ccc(-c2noc3ncnc(N4CCCN(Cc5ccccc5Cl)C4)c23)cc1", "% Inhibition @ 10 uM": 1.92}
{"compound": "COC(=O)[C@@]1(C)CC[C@]2(C)CC[C@]3(C)C(=CC(=O)C4[C@@]5(C)Cc6c([nH]c7ccccc67)C(C)(C)C5CC[C@]43C)C2C1", "note": "(stereo partly shown)", "% Inhibition @ 10 uM": 4.26}
{"compound": "O=C(Nc1ccc(C(=O)c2ccccc2)cc1)c1cccnc1", "% Inhibition @ 10 uM": 2.5}
{"compound": "Cc1ccc(N2C(=O)CC(N(C(=O)CSc3ncccn3)C3CCCCC3)C2=O)cc1", "note": "(stereo not shown)", "% Inhibition @ 10 uM": 3.27}
{"compound": "CCN1C(=O)NC(=O)/C(=C\\c2cn(CCOc3ccccc3)c3ccccc23)C1=O", "% Inhibition @ 10 uM": -4.93}
{"compound": "CC(=O)N1CCC2(CC1)OC(=O)C(C)=C2C(=O)NCCCOC(C)C", "% Inhibition @ 10 uM": 1.6}
{"compound": "CC(C)(C)C1C/C(=C/c2ccccn2)C(=O)/C(=C\\c2ccccn2)C1", "note": "(stereo not shown)", "% Inhibition @ 10 uM": -1.32}
{"compound": "CC(=O)CCS(=O)(=O)c1ccc(Cl)cc1", "% Inhibition @ 10 uM": -7.85}
{"compound": "O=c1[nH]c2sc3c(c2c(=O)n1-c1ccc(Cl)c(Cl)c1)CCC3", "% Inhibition @ 10 uM": -2.48}
{"compound": "COc1ccc(CNC(=O)c2cnn3c2NC(c2ccc(F)cc2)CC3C(F)(F)F)cc1", "note": "(stereo not shown)", "% Inhibition @ 10 uM": -4.39}
{"compound": "Cn1cccc1Cc1nnc(SCC(=O)NCc2ccco2)n1CCc1ccccc1", "% Inhibition @ 10 uM": -5.76}
{"compound": "Cc1ccc(-n2nc(C)c3c(C(=O)NCc4ccc(CN5CCOCC5)o4)cc(C)nc32)cc1", "% Inhibition @ 10 uM": -2.84}
{"compound": "COc1ccc(-c2cc(/N=C(/NC3CCCCC3)SC)[nH]n2)c(OC)c1", "% Inhibition @ 10 uM": -5.92}
{"compound": "O=C(Nc1cccc2ncccc12)c1sc2ccccc2c1Cl", "% Inhibition @ 10 uM": 9.37}
{"compound": "CC(Oc1ccccc1)C(=O)NC1CCCC1", "note": "(stereo not shown)", "% Inhibition @ 10 uM": 1.02}
{"compound": "O=C(NCCC1=CCCCC1)/C(=C/c1cccs1)NC(=O)c1ccccc1", "% Inhibition @ 10 uM": -2.46}
{"compound": "COc1ccc(CNC(=O)Cn2cc3c(n2)CCCC3)cc1", "% Inhibition @ 10 uM": 0.137}
{"compound": "Cc1ccc(OCC(=O)NCCC2=CCCCC2)c(Br)c1", "% Inhibition @ 10 uM": -2.67}
{"compound": "COCCNC(=O)Cc1ccccc1", "% Inhibition @ 10 uM": -4.58}
{"compound": "O=c1c(NCc2ccco2)c(-c2ccc(Cl)cc2)c1=O", "% Inhibition @ 10 uM": 3.47}
